# Laboratory results from paper PMC12136788.
# Some of the results follow.
# T1: UNK ZnF1-3 (human, UniProt Q9C0B0 31-174)
# T1 sequence: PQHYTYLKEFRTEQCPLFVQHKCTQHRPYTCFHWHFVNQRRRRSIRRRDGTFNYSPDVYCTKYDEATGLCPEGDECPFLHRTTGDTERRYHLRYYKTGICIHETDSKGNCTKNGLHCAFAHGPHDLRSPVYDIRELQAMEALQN
# B1: 3777173_3777293_296_3pUTR_ENSG00000101224_ENST00000439880|human|control|control (ssRNA)
# RNA: GGGAGUUCUACAGUCCGACGAUCGGCCAUGAGAUCCCAGCAGGAGGCCCGGGAGGUGGCCCGGACGCUGGGCGCCACCGCACACGCCUGCUGGACUGAGAGCCGAGCCUGGCGCGGGCUCCGGCUGGGGCACCUCCAUCGCGGCAACAGAGGAUUGAGCAUCA
# B2: chr7:97326020:97326021:+_ENSMUSG00000039361_ENSMUST00000049537|mus_mus|motif|central (ssRNA)
# RNA: GGGAGUUCUACAGUCCGACGAUCGGUUGGCUGCUGCAAGUCAAGCAGGUCAUUUGGCAGCUUAGAUGUGCUGUUAGAAGAACGGGGGGUAGAAAAUAUGUCAAUGGCUGGUGCAGUCAUUAUUCCCCCUGCUGAGGUGGACACCAACAGAGGAUUGAGCAUCA
# B3: chr1:89688648:89688649:+_ENSMUSG00000026289_ENSMUST00000027512|mus_hu|FALSE|FALSE (ssRNA)
# RNA: GGGAGUUCUACAGUCCGACGAUCUGGCCUUCAUCACAACCCCUGAAACGGAAAGAUGGCGCUGCUGUGCUUCUGAGCCUAGGCUUCUUGCACUAAAGCACCAAGGGCAUCGCACACAGGCUUGGCAGAGGGGCCAUGGCCAGACAACAGAGGAUUGAGCAUCA
# B4: chr12:48362563:48362564:+_ENSG00000134291_ENST00000256686|hu_hu|hu_hu_hu_mus_False|48_48 (ssRNA)
# RNA: GGGAGUUCUACAGUCCGACGAUCUCCGUCAAGCCCUUCGAUAGACCCUUGCGGGGGAAACUGUAAUCACUUUGUAUGGGGAAGGAAAAAAAAAGCCAAAAACUUUCCAAAAAGCGGGGGUGGGGUGAGGCGGGAGGGGGAGGUCAACAGAGGAUUGAGCAUCA
# B5: chr8:113366719:113366720:-_ENSMUSG00000033732_ENSMUST00000042012|mus_mus|FALSE|FALSE (ssRNA)
# RNA: GGGAGUUCUACAGUCCGACGAUCCAUAUUCUUUGAUGGCUGGUAUUCCAAGAUAACAAUCCGGCCUGAGUCACUGCCAACUACAAUGUAGUCUUUGGUGCCACCUGUUAGCCUAAACGCCAUAAGUGACCGGAUAACACCAAACAACAGAGGAUUGAGCAUCA
# B6: chr2:217001844:217001845:+_ENSG00000079246_ENST00000392132|hu_hu|hu_hu_hu_mus_False|38_38 (ssRNA)
# RNA: GGGAGUUCUACAGUCCGACGAUCACCAACUUGAGGAUUAGAUCUUUUGUCAUAAGCAUAUCGGACGAUGGCGACCAUGUUUAACUCAUCCAAAGCAUGAAUCAGGGAGGAAAGGGCAACAGCUGCCGCCUCAUCAUCCUUUGCCAACAGAGGAUUGAGCAUCA
# B7: 135886410_135886530_3772_3pUTR_ENSMUSG00000039959_ENSMUST00000060311|mouse|control|control (ssRNA)
# RNA: GGGAGUUCUACAGUCCGACGAUCACCAAAGCGUAGCCUGAGCCGCACCGGGGUGUGCUGGCGCUGUGGGGGGGCUUCCUCUCAGAAGGCUCAGAGCUCAGGGUCAGGCUGGGUGGGGGAGGAAUCCUUUUUGGGAAAGUUGGUCAACAGAGGAUUGAGCAUCA
# B8: chr2:232320318:232320319:-_ENSG00000115053_ENST00000322723|hu_hu|hu_hu_hu_mus_True|58_68 (ssRNA)
# RNA: GGGAGUUCUACAGUCCGACGAUCACUAUUAAAGUCUACAAAACCAAACCCUUUGGAAGAACCAGUUUCCCGGUCAGUAACUAUCCUUGCACGAACAGAGCCCUCAAAUGAUUCUUUUAAGGUCUCUUCAGUGGUAUCCUCAGACAACAGAGGAUUGAGCAUCA
# B9: 115046742_115046862_1765_3pUTR_ENSG00000182985_ENST00000542447|human|control|control (ssRNA)
# RNA: GGGAGUUCUACAGUCCGACGAUCGAACAGAAAAGGGAAGGAAAAGAGUCUAAGGAAUCCCAGCAGGCAAAUUCCAAAAUGGGAGAUUUUGGAAAAAAUCCGAAAUUGGGGUAGAGGGAGGAAAUAAAUGUGCACAAAGGGGGACAACAGAGGAUUGAGCAUCA
# B10: 62242893_62244831_779_CDS_ENSG00000023608_ENST00000216294|human|control|control (ssRNA)
# RNA: GGGAGUUCUACAGUCCGACGAUCUUUUUCUUCUCCAUCAUUAGUUUUUGACUUUAAGGAUGGAUUCUUUCUGUCUUUGUGCCACUGCUGAUGCUCCAAAACUAUGUUCUUAAUAUUGUCAAAAAAAUCAUCCUUUAUCAAGCUCAACAGAGGAUUGAGCAUCA
# B11: chr17:76047126:76047127:+_ENSG00000078687_ENST00000588847|hu_hu|motif|central (ssRNA)
# RNA: GGGAGUUCUACAGUCCGACGAUCUGUCUGUUUCACAGAAGCAGCUCCUCCCCAGUUACUCACAUUGUUGUCUUGGGGUUUGCGGGCCCAGUUCUGUUGGGGGCCAGGUUUUAAAGUCUCCCCCCAGUUUGUACCUGGAUUGGCCAACAGAGGAUUGAGCAUCA
# B12: chr8:28149726:28149727:+_ENSMUSG00000031483_ENSMUST00000033873|mus_hu|FALSE|FALSE (ssRNA)
# RNA: GGGAGUUCUACAGUCCGACGAUCCUCCAGCUAUCAACCCACGGCAAUCAAUCCAGCAGUAUCAUUUAUAGAAUGAUUACUAAAACAAGAAUCAUUUCUCAGUUACAAAUGGGGUCAUUAAGCCCUUGGGGCUCUUUGAAAGUACAACAGAGGAUUGAGCAUCA
# B13: 62370663_62371264_2561_CDS_ENSG00000149499_ENST00000394773|human|control|control (ssRNA)
# RNA: GGGAGUUCUACAGUCCGACGAUCCCGGUCUCGGCUCUCAUAGCGAUUCUUCAGCUGCUUGCAGCCUCCAGCCACGUCCCAGUAAAGAAUCUCAUAGUCCCCAGAAUUGGACAUGAUGAAAUUCCCAUCCUUGGACCAGUCAAGCAACAGAGGAUUGAGCAUCA
# B14: chr11:18503389:18503390:-_ENSG00000074319_ENST00000251968|hu_hu|hu_hu_hu_mus_True|88_88 (ssRNA)
# RNA: GGGAGUUCUACAGUCCGACGAUCAUUUUCCAUUUUCUCCAGAGCAGAACUGAGUUCUUCAUCCUUCUUUUUCAAAAGUUCUAUGUUUUUAUCAACUUCAGCUACUUCUUGAUCUAAGCGGGUGACCAUCUCUUCCAGUUUCUGCAACAGAGGAUUGAGCAUCA
# B15: chr10:80930753:80930754:-_ENSMUSG00000034818_ENSMUST00000145375|mus_mus|FALSE|FALSE (ssRNA)
# RNA: GGGAGUUCUACAGUCCGACGAUCGUGGACAACACUGUUGUCUGUUGCUGCAUGAGAGCCUGGGCGUAGGCACUGUAGGGGCUGAAGGGCAGGGUGAGGGACGGCGUCAGGAUGCCCAGCUGGCCAACCAUCUGCUGCAUACGCCAACAGAGGAUUGAGCAUCA
# B16: chr12:40763261:40763262:-_ENSMUSG00000047446_ENSMUST00000101472|mus_hu|FALSE|FALSE (ssRNA)
# RNA: GGGAGUUCUACAGUCCGACGAUCAUUGAACUGCAGCCUGUAUAAGACAGUUGUCUUUCCAGCACAGUCCAAACCCAGAAUAACAAUGUGGAAAGACUGAAAUGAAGGCAGGUUGGACAGGAUAGAAGUCUGGUCUGACAGCCCCAACAGAGGAUUGAGCAUCA
# B17: chr10:97366135:97366136:-_ENSG00000059573_ENST00000371224|hu_hu|motif|central (ssRNA)
# RNA: GGGAGUUCUACAGUCCGACGAUCAUGACUACAUGUGAAAGAAAUAAAAUGUGAAAAGAUUUGUUAAGGAUGACUGGCUCGGGUACCAACUAAAUGCCAAGGGGGACUGUAAGUCACUGAGGUGACACAAAGCAGCCAUGGGUUCAACAGAGGAUUGAGCAUCA
# B18: chr10:84137372:84137373:+_ENSMUSG00000034453_ENSMUST00000077175|mus_hu|motif|central (ssRNA)
# RNA: GGGAGUUCUACAGUCCGACGAUCGUAAGAGAGCUCUUCCCCACAUAAUAAAUUCACAUCUUCUACUCCCAAGUUACUGGCGGAUUUAACAAUGGGUCCAUCUUCCAUAUCAGUUGUGAUGUGUGUCAUAAGGGCCAAGUUUUUCAACAGAGGAUUGAGCAUCA
# B19: chr10:33190432:33190433:-_ENSG00000150093_ENST00000302278|hu_mus|hu_hu_hu_mus_True|48_78 (ssRNA)
# RNA: GGGAGUUCUACAGUCCGACGAUCUACAUUUUCCAAACCUGCAUGUGAAUAAAACCCUGGCAAUAUUGCCCCAAAACUACCCUACUGUGACUAUGGAGCUGCUGCUGUGAGCUUGGUGUUGCAAAAUCCGCCUGAGUAGGAUUCCAACAGAGGAUUGAGCAUCA
# B20: chr15:76014475:76014476:-_ENSMUSG00000022565_ENSMUST00000071869|mus_mus|FALSE|FALSE (ssRNA)
# RNA: GGGAGUUCUACAGUCCGACGAUCAAGCUCUUGGAGAGUGGCAGGCACAGCCUGGGCCUCCUUCAGCUGCUCCUCAUGGGUUUUAAGCACCUCCUCAGCCCCCUGGGUACUGCGAAUCACCAAGCUGAUGGUCUUGAGUUUCUCCAACAGAGGAUUGAGCAUCA
# B21: chr1:171510215:171510216:+_ENSG00000117523_ENST00000367742|hu_hu|FALSE|FALSE (ssRNA)
# RNA: GGGAGUUCUACAGUCCGACGAUCAGGAUAAUCUCGAGUGUGUCCCCUACCACCCCUGCCACGCCCUCCAUAAGAACCUCUAUAGCUUCGACCUCUGGAGUAAUAUUCACCUCGGCCUCGACCUCUGUAUCCUUGAUCUGGAAACAACAGAGGAUUGAGCAUCA
# B22: chr8:74858975:74858976:-_ENSG00000154582_ENST00000284811|hu_mus|hu_hu_hu_mus_True|38_48 (ssRNA)
# RNA: GGGAGUUCUACAGUCCGACGAUCGACCUUGUAGGUAAAAUACAUGCACACUUUUGAUAGCACAUGUGAGGGGAUCUCUCUAAAAUUGACCUCAUUGGUUUCGUUCUCAGCAAACUGACCUGGACCACUCAACAUAGCCUUUAUCAACAGAGGAUUGAGCAUCA
# Biological target: T1, UNK ZnF1-3
# Assay: nsRBNS (natural sequence RNA bind-n-seq); RBNS binding buffer (assumed for nsRBNS): 25 mM Tris pH 7.5, 150 mM KCl, 3 mM MgCl2, 0.01% Triton X-100, 500 ug/ml BSA, 20 U/ml SUPERase-In, 4 C; UNK is unkempt and MSI1 is Musashi-1; names of the RNAs are library labels; protein concentration not given here; high values mean tight binding
row,Binder,binding signal
1,B1,0.471 enrichment R
2,B2,1.05 enrichment R
3,B3,0.983 enrichment R
4,B4,3.09 enrichment R
5,B5,0.694 enrichment R
6,B6,1.72 enrichment R
7,B7,1.39 enrichment R
8,B8,0.654 enrichment R
9,B9,3.01 enrichment R
10,B10,0.607 enrichment R
11,B11,1 enrichment R
12,B12,1.5 enrichment R
13,B13,0.653 enrichment R
14,B14,0.504 enrichment R
15,B15,0.972 enrichment R
16,B16,0.945 enrichment R
17,B17,3.12 enrichment R
18,B18,0.654 enrichment R
19,B19,1.08 enrichment R
20,B20,0.911 enrichment R
21,B21,1.03 enrichment R
22,B22,0.845 enrichment R
